Measurements taken from publication PMC12040169 (PLOS Biology, 2025).
Some of the results follow.

tested on: T1, C. trachomatis L2/434/Bu expressing GFP (CTL2-GFP); design: species or system HeLa; C. trachomatis total inclusion area by high-content imaging, normalised to DMSO; details: total inclusion area; 28.5 h, 10 µM; inhibitor
T1 construct: L2/434/Bu GFP intracellular growth in HeLa cells
Procedure, shortened: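 Imaging read-out: GFP inclusions and Hoechst nuclei captured by high-content imaging after fixation. Inclusion area/number = chlamydial growth; nuclei count = host cell viability. MIC calculated per earlier method.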

SMILES | % of control remaining
CCOC(=O)C1=C(C)NC(=O)NC1c1ccc(-c2ccccc2F)o1 (centres unmarked) [CBK263867] | 93.7298
CCn1c(SC(C)C(N)=O)nc2ccc(Br)cc2c1=O (centres unmarked) [CBK306424] | 46.7854
C1=CCC(CN(CCCn2ccnc2)Cc2cccnc2)CC1 (centres unmarked) [CBK283216] | 89.6573
Cc1nc(C(Cc2ccsc2)NC(=O)C2CCCNC2)sc1C (centres unmarked) [CBK282228] | 116.975
O=C(COc1ccc([N+](=O)[O-])cc1)Nc1ccc(S(=O)(=O)N2CCCCC2)cc1 [CBK265003] | 99.7977
OC(CN1CCC(O)(c2ccc(F)cc2)CC1)c1ccc(F)cc1 (centres unmarked) [CBK282510] | 103.686
C=CCn1c(COc2cccc3ccc(C)nc23)nnc1SC [CBK266608] | 81.9504
O=C(c1ccccc1Br)N1CCN(c2ccc([N+](=O)[O-])c(NCc3cccnc3)c2)CC1 [CBK265735] | 132.24
CN1Cc2ccccc2CC1C(=O)N1CCCC12CC=CC2 (centres unmarked) [CBK282838] | 122.329
Cc1ccc(S(=O)(=O)NCCSc2nnc(N)s2)cc1 [CBK266300] | 94.2493
Cn1ncc(N)c1C(=O)Nc1cccc(Cl)c1 [CBK270107] | 116.316
COc1cc(CNc2cc(-c3cccc4oc5ccccc5c34)ncn2)cc(OC)c1OC [CBK091177] | 111.591
N#Cc1cnc2c(-c3ccccc3)c(Cc3ccccc3)nn2c1N [CBK270191] | 124.542
O=C1NC2(CCN(C(=O)c3cccs3)CC2)Oc2ccccc21 [CBK283998] | 64.757
O=C(c1ccc(F)cc1)N1CCCC(c2nccnc2-c2cccc(C(F)(F)F)c2)C1 (centres unmarked) [CBK286142] | 96.319
Cc1cc2ccccc2n2c(SCCC(=O)Nc3ccc(C(C)(C)C)cc3)nnc12 [CBK265639] | 99.1559
CCCCOC(=O)c1ccc(NC(=O)c2cc(-c3ccco3)nc3c2c(C)nn3C)cc1 [CBK295313] | 92.1114
CC1CCCN(C(=O)CCc2nc3sc4c(c3c(=O)[nH]2)CCCC4)C1 (centres unmarked) [CBK306073] | 100.035
O=C(NCCn1nc2c(cc1=O)CCCCC2)c1ccccc1F [CBK282300] | 113.707
Cc1cc(C)c(C)c(S(=O)(=O)NCCOCCO)c1C [CBK269153] | 103.346
Cc1nc2c(c(=O)[nH]1)CCN(Cc1ccc(Cl)c(Cl)c1)C2 [CBK283969] | 93.4239
CCN1CCN(c2ccc(NC(=O)c3ccc(-c4cc5ccccc5oc4=O)cc3)cc2Cl)CC1 [CBK266700] | 113.427
COc1cc(/C=C(/C#N)c2ccc(C(=O)O)cc2)c([N+](=O)[O-])cc1OCc1ccccc1 [CBK268738] | 93.7509
Cc1[nH]c(=O)c(C(=O)N(C)C(C)c2ccc(Cl)cc2)cc1-c1ccc(O)cc1 (centres unmarked) [CBK291225] | 93.7707
CC(=O)Oc1ccc(NC(=O)C2CC(Cl)=CCC2C(=O)O)cc1C(=O)O (centres unmarked) [CBK265372] | 105.795

SMILES | % of control remaining
CCCNC(=O)C1(Cc2ccccc2-c2cccs2)CCN(C(=O)c2ccccc2)CC1 [CBK285694] | 116.544
Cc1ccc(S(=O)(=O)NCCSCc2ccc(Cl)c(Cl)c2)cc1[N+](=O)[O-] [CBK264675] | 99.7723
COC(=O)c1c(NC(=S)Nn2cnnc2)sc2c1CCC(C)C2 (centres unmarked) [CBK266942] | 122.972
CCc1nc2ccc(C(=O)NCC3CCCCC3)cn2c1N(C)Cc1ccc(OC)cc1 [CBK145568] | 114.908
Cn1nc(C(=O)NCC(c2ccccc2Cl)N2CCOCC2)ccc1=O (centres unmarked) [CBK305886] | 90.1156
COC(=O)CCn1c(=O)c2c(nc3oc(C)c(C)n32)n(C)c1=O [CBK306033] | 106.053
O=C(O)[C@H]1CN(C(=O)c2ccco2)C[C@@H]1c1ccc(F)cc1 [CBK283735] | 54.8024
OCCn1ncc2c(NCc3nncn3-c3ccccc3)ncnc21 [CBK304608] | 83.9176
CS(=O)(=O)N1CC2(CCN(CCc3c[nH]c4ccccc34)CC2)c2ccccc21 [CBK084017T] | 88.9711
COc1ccc(C(=O)N2CCC3(CCN(Cc4c(F)cccc4F)C3)C2)cc1OC (centres unmarked) [CBK132152] | 40.5091
O=C(N[C@H]1CCN2C(=O)c3cc(-c4ccccc4F)ccc3NC(=O)[C@@H]2C1)c1cnccn1 [CBK289558] | 98.2487
COc1cccc(OCC(=O)O/N=C(\N)c2ccncc2)c1 [CBK262592] | 110.436
Cc1cc(COc2nc3ccccc3nc2NC[C@@H]2CCCO2)no1 [CBK174027] | 70.7599
CC(=O)Nc1ccc(-c2ccc(=O)n3c2[C@@H]2C[C@@H](CN(C(=O)c4ccccc4)C2)C3)cc1 [CBK289198] | 87.2731
CN(C)c1ccc(C(=O)N2CCN3C(=O)[C@H](Cc4ccc(F)cc4)NC(=O)[C@H]3C2)cc1 [CBK289601] | 106.657
Cc1[nH]c(=O)[nH]c(=O)c1C(=O)Nc1ccccc1 [CBK116181] | 84.092
CCOc1cccc(CNC(=O)N2CCC(Cc3cnn(C)c3)C2)c1 (centres unmarked) [CBK305280] | 38.9965
CCCCSc1nc(N)cc(N2CCC(C(=O)NCC)C2)n1 (centres unmarked) [CBK306880] | 76.7036
CCCCC1(COC(C)=O)OC(=O)Nc2ccc(Br)cc21 (centres unmarked) [CBK010195] | 65.9129
O=C1CC2(CCN(C(=O)C3CCCCC3)CC2)Oc2ccc(F)cc21 [CBK282863] | 78.1888
OCCN(CCO)c1nc(-c2ccccc2)nc2sc(-c3ccccc3)cc12 [CBK265935] | 89.0694
O=C(O)C1CCCCC1C(=O)Nc1cccc2ccccc12 (centres unmarked) [CBK261569] | 87.5856
COCCNC(=O)CSc1cc(Cl)nc(Cl)c1 [CBK020796] | 68.6337
Cc1cc(C)cc(OCC(=O)Nc2c(C#N)c(C)nn2C)c1 [CBK304791] | 59.983
CCn1c(=O)n(CCC(=O)NC(C(N)=O)c2ccccc2)c2ccccc21 (centres unmarked) [CBK295196] | 94.6087
